# Out of some 110,000 compounds screened, about 230 (0.21%) showed an effect of 50% or more. The list shows a part of the results.
# Biological target: DPAP1 (Plasmodium falciparum, UniProt Q8IIJ9)
# Assay: primary screen, percent inhibition; read by cleavage of a fluorogenic dipeptide substrate; higher = more effect of the substance
# Design: species or system P. falciparum D10 trophozoite lysates; single well
# 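Note: 30 min substrate incubation versus DMSO and 10 µM JCP410 controls.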
# Chain of DPAP1 (Q8IIJ9 whole entry, looked up): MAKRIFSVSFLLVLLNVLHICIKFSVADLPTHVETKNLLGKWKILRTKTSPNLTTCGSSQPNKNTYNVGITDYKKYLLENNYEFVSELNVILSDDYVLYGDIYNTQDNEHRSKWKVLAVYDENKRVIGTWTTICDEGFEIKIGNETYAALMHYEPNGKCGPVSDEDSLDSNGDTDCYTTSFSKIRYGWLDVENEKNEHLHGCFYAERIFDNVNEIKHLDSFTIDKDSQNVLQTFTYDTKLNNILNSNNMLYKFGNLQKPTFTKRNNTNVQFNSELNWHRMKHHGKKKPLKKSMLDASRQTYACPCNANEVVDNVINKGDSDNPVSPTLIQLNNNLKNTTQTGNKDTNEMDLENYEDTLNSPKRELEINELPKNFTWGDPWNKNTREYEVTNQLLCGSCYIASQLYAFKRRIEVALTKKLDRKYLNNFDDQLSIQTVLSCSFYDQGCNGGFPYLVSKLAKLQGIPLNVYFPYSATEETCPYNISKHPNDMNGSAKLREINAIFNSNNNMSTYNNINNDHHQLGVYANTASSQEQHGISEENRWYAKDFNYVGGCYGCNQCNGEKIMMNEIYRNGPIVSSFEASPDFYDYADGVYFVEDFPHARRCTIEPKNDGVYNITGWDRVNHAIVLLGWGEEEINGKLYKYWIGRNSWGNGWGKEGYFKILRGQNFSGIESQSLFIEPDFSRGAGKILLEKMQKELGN
row,Compound,% Inhibition @ 10 uM
1,CC(C)(C)c1ccc(C(=O)Nc2ccc(S(=O)(=O)Nc3nccs3)cc2)cc1,0.878%
2,COc1ccc(C2=NN(CC(=O)NCCN3CCOCC3)C(=O)CC2)cc1,-1.79%
3,COc1ccccc1C1CC(c2ccc(Cl)c(Cl)c2)Nc2nc(N)nn21 (centres unmarked),-7.38%
4,Cc1ccc(-c2[nH]nc3c2C(c2ccncc2)C(C#N)=C(N)O3)cc1 (centres unmarked),-2.86%
5,CCCCC1CCC(C(=O)N(Cc2cccc(OC)c2)C2CCS(=O)(=O)C2)CC1 (centres unmarked),-3.12%
6,CC(C)NC(=O)c1ccccc1NC(=O)CN1C(=O)c2ccccc2S1(=O)=O,2.95%
7,COC(=O)c1ccc2c(c1)C(=O)/C(=C/c1ccc(C)cc1)O2,-1.37%
8,CNC(=O)/C(C#N)=C/c1c(Oc2ccccc2Cl)nc2ccccn2c1=O,-5.11%
9,CC(C)CNC(=O)C1Sc2nnc(-c3ccccc3)n2NC1c1ccccc1 (centres unmarked),3.35%
10,COCCN1C(=O)/C(=C/c2c(C)[nH]c3ccccc23)S/C1=N\c1ccccc1,10.3%
11,CCCCOc1ccc(/C=C(/C#N)C(N)=S)cc1,-5.33%
12,COc1nc(N)c(C#N)c(-c2ccc(N(C)C)cc2)c1C#N,1.54%
13,COc1ccccc1Oc1nc2ccccn2c(=O)c1/C=C(\C#N)S(=O)(=O)c1ccccc1,2%
14,Cc1ccc(CN2CCN(Cc3cccnc3)CC2)cc1,-6.27%
15,COc1cc(OC)cc(C(=O)Nc2ccc(F)cc2)c1,-1.25%
16,COc1cc(C2CC(=O)Nc3cc(C)c(C)cc32)cc(OC)c1OC (centres unmarked),-7.58%
17,c1ccc(Oc2cc(-n3cccn3)nc(-c3ccccc3)n2)cc1,5.03%
18,Cc1cc(C)c2c(n1)SCC(=O)N2CC(=O)NCc1cccc(Cl)c1,-6.01%
19,NC(=O)c1c(NC(=O)Nc2ccc(Cl)c(Cl)c2)sc2c1CCCC2,0.661%
20,Cc1cc(C)nc(NS(=O)(=O)c2ccc(NS(=O)(=O)c3ccc(F)cc3)cc2)n1,-7%
21,COc1ccccc1N(CC(=O)Nc1ccccc1C)S(C)(=O)=O,-9.26%

row,Compound,% Inhibition @ 10 uM
1,O=C(O)c1cc(C(=O)O)cc(N2C(=O)c3ccc([N+](=O)[O-])cc3C2=O)c1,1.64%
2,CCOC(=O)C1=C(CN(Cc2ccco2)C2CCCC2)NC(=O)NC1c1ccc(Cl)cc1 (centres unmarked),0.708%
3,COc1ccc2[nH]c(SCC(=O)NCCC34CC5CC(CC(C5)C3)C4)nc2c1,9.61%
4,O=C(COCc1cc(-c2ccco2)on1)Nc1cc(-c2cccc(Cl)c2)no1,5.8%
5,CC1CCN(C(=O)c2ccc(C/N=c3/c(N4CCC(C)CC4)c(O)c3=O)cc2)CC1,1.15%
6,Fc1ccc(N2CCN(Cc3cccc(Br)c3)CC2)cc1,3.16%
7,Cc1s/c(=N\C(=O)c2ccco2)n(C)c1-c1ccc(Cl)cc1,-1.73%
8,CCn1cc(C(CC(=O)O)C(=O)O)c2ccccc21 (centres unmarked),-5.41%
9,O=C(Cn1nc(Cc2cccnc2)c2ccccc2c1=O)NCC1COc2ccccc2O1 (centres unmarked),-4.69%
10,CCO/C(O)=C1\C(C)=NC2=C(C(=O)CCC2)C1c1ccccc1C(F)(F)F (centres unmarked),16.8%
11,O=S(=O)(c1ccc(Cl)cc1Cl)c1nc(N2CCOCC2)s[n+]1Cc1ccccc1,-5.85%
12,CC(C)CC(NC1CCS(=O)(=O)C1)C(=O)O (centres unmarked),-2.65%
13,CC(CC#CCN1CCCCC1)OC(C)(C)C (centres unmarked),-5.89%
14,CCOc1ccc(N(CC(=O)Nc2ccc3c(c2)OCO3)S(=O)(=O)c2ccc(C)cc2)cc1,4.25%
15,COc1ccc(CNC(=O)CCCN2C(=O)c3ccccc3Sc3ncccc32)cc1,-1.7%
16,Cc1ccccc1/N=c1\scc(-c2ccccc2)n1CCO,2.55%
17,Cc1c(CC(=O)N2CCOCC2)c(=O)oc2cc(O)c(Cl)cc12,-10.3%
18,Cc1nn(CCCC(=O)NCC(C)c2ccccc2)c(=O)c2cc3sccc3n12 (centres unmarked),-5.19%
19,CCc1c(C)nc2nncn2c1NCc1ccc(C)cc1,-0.808%
20,COc1ccc(-c2ccccc2N)c(OC)c1,-1.38%
21,CCOCCCNC(=O)c1csc2c1CCCC2,0.277%

row,Compound,% Inhibition @ 10 uM
1,Cn1c(COc2ccccc2Br)nc2ccccc21,-1.29%
2,Cc1ccc(C2C(C#N)=C(N)N(c3nc[nH]n3)C3=C2C(=O)CC(C)(C)C3)cc1 (centres unmarked),-6.92%
3,COc1ccc(-c2cc(C(F)(F)F)nc(SCC(=O)NC(C)(C)C)n2)cc1,25.2%
4,O=C(CCn1nc(-c2ccccc2)ccc1=O)N1CCC2(CC1)OCCO2,-0.0542%
5,Cc1ccc(Cn2c(=O)c3ccccc3n3c(CCC(=O)NC4CCC(C)CC4)nnc23)cc1 (centres unmarked),-0.692%
6,COc1cc(/C=C2/SC(=O)N(CC(=O)N3CCOCC3)C2=O)ccc1C,-1.22%
7,CCc1cccc(CC)c1NC(=O)Cn1cnc2scc(-c3ccc(OC)cc3)c2c1=O,5.37%
8,O=C1c2ccccc2C(=O)N1c1nncs1,0.708%
9,Cc1ccc2nc(-c3cc(N)ccc3Cl)oc2c1,0.756%
10,O=C(NC(Cc1c[nH]c2ccccc12)C(=O)O)c1ccccc1 (centres unmarked),4.93%
11,COc1ccc2c(c1)c(=O)oc1c(C)c(OCc3cc(C(=O)O)oc3C)ccc12,3.47%
12,COc1ccc(-c2nc(CN3CCCC(C(=O)NC4CCCCC4C)C3)c(C)o2)cc1 (centres unmarked),0.689%
13,COc1ccc(OC)c(C2c3cccn3CCN2C(=S)NC(C)(C)C)c1 (centres unmarked),-3.18%
14,Nc1cc(O)nc(SCc2ccc(Cl)cc2Cl)n1,-7.18%
15,Cc1ccc(CNC(=O)c2nnc(Cc3ccc4c(c3)OCO4)o2)cc1,4.47%
16,Brc1ccc(CN2CCOCC2)o1,-2.95%
17,CC(C)Cc1nnc2sc(NC(=O)C(C)Oc3ccccc3)nn12 (centres unmarked),7.58%
18,Cc1ccc(Nc2nn(C)c3c(C)ncc(C)[n+]23)cc1,-0.545%
19,Cc1ccc(-n2nc(C)c3c(C(=O)NCCN4CCc5ccccc5C4)cc(C)nc32)cc1,-3.1%
20,Cc1ccc(/C(O)=C/C=N/c2ccc(S(=O)(=O)Nc3onc(C)c3C)cc2)cc1,3.92%

# From publication PMC6919601, “Identification of Plasmodium dipeptidyl aminopeptidase allosteric inhibitors by high throughput screening” (PLoS ONE, 2019)
